ChEMBL document CHEMBL4888484, “Replenishing the malaria drug discovery pipeline: Screening and hit evaluation of the MMV Hit Generation Library 1 (HGL1) against asexual blood stage Plasmodium falciparum ,using a nano luciferase reporter read-out” (2022)
Out of some 150,000 compounds screened, about 540 (0.36%) showed an effect of 50% or more. The list shows a part of the results.

System: Plasmodium falciparum
Assay: Primary screen in NF54 nanoGlo assay, in single point, at 2uM, 72h; a lower Z score goes with more inhibition
Format: functional, Erythrocyte
Conditions: timepoint 72 hour

SMILES | % Inhibition [%] | Z score
CCCC(=O)N1CCC[C@H](c2nnc(C(=O)Nc3cccc(F)c3)s2)C1 | -3 | 0.44
Cc1nn(-c2ncnc3[nH]cnc23)c2c1[C@@H](c1ccc(O)cc1)CC(=O)N2 | -12 | 1.38
C[C@H](NC(=O)Cc1cnccc1C(F)(F)F)c1ccc(Cl)cn1 | 1 | -0.15
Cc1ccccc1S(=O)(=O)N1CCCC2(CCNCC2)CC1 | 1 | -0.21
O=c1cc(N2CCOCC2)cnn1C[C@H]1CCCO1 | 5 | -0.93
Cn1cc(CN(C(=O)CN2C(=O)COc3cccnc32)C2CCCCC2)cn1 | -3 | 0.42
Cc1ccc(C2Nc3ccccc3C(=O)N2CC2CCCO2)s1 (stereo not given) | 14 | -1.61
c1cnc(N2CCN(c3nc4nonc4nc3N3CCCC3)CC2)cn1 | -19 | 2.76
Cc1nn(C)c(NC(=O)c2ccc(Cl)cc2)c1C1=CCCCC1 | 35 | -1.02
Cc1cccc(NS(=O)(=O)c2ccc3nncn3c2)c1 | 37 | -5.33
COc1ccc(-c2noc(CCC(=O)NCc3nc(C)cs3)n2)cc1OC | -1 | 0.15
CCCCNc1cc(N2CCN(C[C@H]3CCOC3)CC2)nc(N)n1 | -8 | 1.11
c1cc(NCc2cnc(C3CCC3)s2)cc(-n2cnnc2)c1 | -2 | 0.34
CC(=O)c1ccc(N2CCN(C(=O)CCc3nc4ccccc4s3)CC2)cc1 | -3 | 0.28
CN(C)c1ncccc1CNC(=N)Nc1ccccc1 | 3 | -0.52
CC(C)c1ncc(CN(C)CC2CCCC2)cn1 | -7 | 1.24
Cc1ccc(CN2CCNC(=O)[C@@H]2CC(=O)NC2Cc3ccccc3C2)o1 | -7 | 1.05
O=C(Nc1cccc2[nH]nnc12)N1CCCCCC1 | -2 | 0.34
CC(C)c1nn(C)c2sc(C(=O)N3CC(C)C(N(C)C)C3)cc12 (stereo not given) | -16 | 1.62
O=C(COC(=O)Cn1ccc(C(F)(F)F)n1)Nc1ccc2c(c1)OCCCO2 | -13 | 2.48
CC1CCN(C[C@H]2CCCN(C(=O)c3ccc(F)cc3)CC2)CC1 | -1 | 0.14
Cc1nnc(CN(C)Cc2cnnn2Cc2ccccc2)n1C | -7 | 1.21

SMILES | % Inhibition [%] | Z score
Cc1cc(Br)c2c(c1)CN(c1ccc(C(N)=O)nn1)CC2 | -16 | 1.55
COCCN1C(=O)c2ccccc2C(C(=O)NCC2COc3ccccc3O2)C1c1ccc(F)cc1 (stereo not given) | -6 | 0.91
CN(Cc1ccccc1)c1ncnc(Oc2ccc(F)cc2)c1N | 0 | -0.07
CC1COCC(C)N1C(=O)CCC1CCNCC1 (stereo not given) | -7 | 1.05
CCN(Cc1nc2ccccc2s1)C1CCN(C(C)c2ccccc2)C1 (stereo not given) | -13 | 1.41
COc1ccc(-c2cn3c(C(=O)N(C)[C@@H](C)c4ccon4)csc3n2)cc1F | -7 | 1.01
O=C(N[C@H]1C[C@H](c2ccc(F)cc2)C1)c1ccnnc1 | 1 | -0.25
Cc1ccn(Cc2nc([C@@H](C)C3(C)CC3)no2)n1 | 1 | -0.19
CCOc1ccc2c(c1)-c1c(ssc1=S)C(C)(C)N2C(=O)[C@H](Cc1ccccc1)N1C(=O)c2ccccc2C1=O | 0 | -0.05
CCN(CC)[C@@H](CNC(=O)N1CCC2(CC1)COC(=O)O2)c1ccco1 | -8 | 1.55
CCOc1ccc(CC(=O)N2CCC3(CC2)C(=O)N(C)c2ccccc23)cc1 | -8 | 1.33
CCc1[nH]c(-c2ccc(Cl)cc2)nc1C(=O)N1C[C@H]2OCCN(C)[C@H]2C1 | -44 | 5.15
C[C@H]1CNCCN1C(=O)CCS(=O)(=O)c1ccc2c(c1)OCCCO2 | -13 | 1.79
C1=CCC(Nc2ccc3nnc(C4CC4)n3n2)C1 | -12 | 1.54
O=C(NCCC1CCCCCCC1)N1CCC[C@H](c2cc(O)ncn2)C1 | -6 | 0.78
CCOc1ccc(-c2nc(Cn3c(=O)c4c(C)cc(C)nc4n(C)c3=O)c(C)o2)cc1OC | -10 | 1.35
CC[C@H](NC(=O)c1c(C)ncnc1C)c1ncnn1CC | -15 | 1.59
C1CCC2(CC1)[C@@H](OCC1CC1)CN2C1CCNCC1 | 17 | -2.69
CCCCNC(=O)CN(C)Cc1[nH]cc(C)c(=O)c1C | -12 | 2.01
O=C1CCN(C(=O)c2cccs2)CCCCCCN1 | -9 | 1.24
NC(=O)c1ccc(CNC2CCCCCCC2)o1 | -8 | 1.34
CCN(Cc1nc2c(cnn2C)c(=O)[nH]1)C1CCCC1 | -4 | 0.44

SMILES | % Inhibition [%] | Z score
N#Cc1ccc(C(=O)N2CC[C@@H](CO)[C@@H](O)C2)cn1 | 14 | -1.56
CC[C@H](C)[C@H](NC(=O)NCc1ccccc1)c1nc2ccccc2[nH]1 | 7 | -0.97
CCOC(=O)c1cc(C(C)(C)C)n(C2CCN(S(=O)(=O)c3ccccc3C#N)CC2)n1 | -15 | 2.51
CN(C)C(=O)Cn1cc(-c2nc(-c3ccco3)no2)nn1 | -5 | 0.76
Cc1ccc(CN(C(=O)c2cn3cccnc3n2)C2CCCC2)s1 | -13 | 1.69
CC(C)(C)Nc1nc(-c2nnc(-c3cccc(Cl)c3)o2)nc2ccccc12 | 1 | -0.24
CN1CC[C@@H]2CN(C(=O)Nc3nc(-c4ccccc4C(F)(F)F)ns3)C[C@@H]21 | 1 | -0.17
CC(C)N1CCN(c2ccc(-c3ccncc3)cn2)CC1 | 10 | -1.28
CCCN(Cc1cc(NC(=O)N(C)C)ccc1N(C)C)C(=O)C(CC)CC | -7 | 1.27
CC1Oc2ccccc2C1NC(=O)N1CCC(n2cccn2)C1 (stereo not given) | 5 | -0.5
CC[C@H](O)C(=O)NCCOc1ccccc1Cl | 10 | -0.96
O=C1CN(C[C@@H]2CCCN3CCCC[C@H]23)CCN1CCc1ccccc1 | 12 | -1.55
Cc1ccc(C(=O)Nc2ccc3c(c2)OCCCO3)o1 | 0 | -0.03
COc1ccc([C@H](C)n2c(C)c3c(C)nn4cc(-c5cc(Cl)ccc5Cl)cc4c3c2C)cc1 | 31 | -3.57
COCc1cc(CNc2ncc(Br)cc2CO)no1 | -7 | 0.72
O=C(COc1cccc(Cl)c1)N1CCCN(c2ccc3nncn3n2)CC1 | -3 | 0.34
COC(=O)N(Cc1noc(-c2cccc3nn[nH]c23)n1)C1CC1 | -11 | 1.15
O=C(C[C@H]1COCCN1C(=O)Cc1cccnc1)N1CCCCCCC1 | -6 | 1.15
Cc1ccc(N2CCC(NC3(C(=O)O)CCCC3)CC2)cc1Cl | -11 | 2.09
CC1=C[C@@H](CN2CCC(C(N)=O)CC2)[C@H](C(C)C)C[C@H]1Cc1nnc(-c2ccc(N(C)C)cc2)o1 | -8 | 1.06
Cn1c(=O)[nH]cc(C(=O)NCc2ccc(F)cc2)c1=O | -6 | 1.13
CCn1c(C)cc(C(=O)N2C[C@@H]3CC[C@H]2CN(c2cnccn2)C3)c1C | -4 | 0.66

SMILES | % Inhibition [%] | Z score
CC1(C)CN(C(=O)c2ccccc2-n2ccnn2)CC[C@@H]1O | -6 | 0.59
CCOCC(=O)NCCc1cn(C)c2cc(C)ccc12 | -12 | 1.29
CCn1cc(S(=O)(=O)Nc2ncc(C(C)C)s2)cn1 | -4 | 0.42
Cc1ncccc1C(=O)N1CC(n2cc(COCc3ccccc3)nn2)C1 | 0 | 0.04
CC(CCc1ccccc1)N1C(=O)c2ccccc2C1O (stereo not given) | 0 | 0.04
COCCC1(C)CN(C(=O)c2nc3cnccc3s2)C1 | 4 | -0.7
COc1ccc(-n2nnc3c(=O)n(CC(=O)NCCc4ccccc4)cnc32)cc1OC | -11 | 2.14
COc1nc(NC(=O)C2CC2c2ccc(F)c(F)c2)n[nH]1 (stereo not given) | -12 | 1.14
Cc1ncc(C(=O)N[C@H](CO)[C@@H](C)O)c(C2CC2)n1 | 0 | -0.01
Cn1nc([C@@H]2CCCN2C(=O)CC2CCCCC2)n(Cc2ccccc2)c1=O | -18 | 2.46
O[C@@H](CN1CCC(c2ccn[nH]2)CC1)C(F)(F)F | 27 | -3.09
Cc1cnc(C(=O)Nc2ccccc2NCCc2ccccn2)cn1 | -13 | 1.7
Cc1cc(C)cc(CN2CCN(C(=O)[C@@H](O)Cc3ccccc3)CC2=O)c1 | -5 | 0.83
O=C(Nc1nccs1)c1csc2c1CC[C@H](c1ccccc1)C2 | -2 | 0.25
O=C(CCc1nc(-c2ccsc2)no1)N[C@H]1CCCCNC1=O | -6 | 1.17
Cn1cc(CCCNc2ccc(Cl)c(C#N)n2)cn1 | -3 | 0.41
CCc1c(NC(=O)N2CCCCCC2)cnn1-c1cccc(C)c1 | -13 | 1.28
C[C@@H]1CC[C@H](C)N1C(=O)CC[C@@H]1NC(=O)NC1=O | -1 | 0.1
C[C@@H]1CN(C(=O)c2ccc(-c3nn(C)c4ccccc34)cc2)C[C@H](C)O1 | -4 | 0.49
